{
  "source": "paper PMC4336329",
  "about": "(PLoS ONE, 2015)",
  "note": "About 14,000 (4.5%) of roughly 310,000 compounds showed an effect of 50% or more. Effects have a minus sign here. The list shows a part of the results.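 Further: peak tail current of the secondary pulse compared with the same well before compound.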",
  "data": [
    {"target": "human ether-à-go-go-related gene (hERG) potassium channel (human, UniProt Q12809)", "sequence (Q12809 whole entry, looked up)": "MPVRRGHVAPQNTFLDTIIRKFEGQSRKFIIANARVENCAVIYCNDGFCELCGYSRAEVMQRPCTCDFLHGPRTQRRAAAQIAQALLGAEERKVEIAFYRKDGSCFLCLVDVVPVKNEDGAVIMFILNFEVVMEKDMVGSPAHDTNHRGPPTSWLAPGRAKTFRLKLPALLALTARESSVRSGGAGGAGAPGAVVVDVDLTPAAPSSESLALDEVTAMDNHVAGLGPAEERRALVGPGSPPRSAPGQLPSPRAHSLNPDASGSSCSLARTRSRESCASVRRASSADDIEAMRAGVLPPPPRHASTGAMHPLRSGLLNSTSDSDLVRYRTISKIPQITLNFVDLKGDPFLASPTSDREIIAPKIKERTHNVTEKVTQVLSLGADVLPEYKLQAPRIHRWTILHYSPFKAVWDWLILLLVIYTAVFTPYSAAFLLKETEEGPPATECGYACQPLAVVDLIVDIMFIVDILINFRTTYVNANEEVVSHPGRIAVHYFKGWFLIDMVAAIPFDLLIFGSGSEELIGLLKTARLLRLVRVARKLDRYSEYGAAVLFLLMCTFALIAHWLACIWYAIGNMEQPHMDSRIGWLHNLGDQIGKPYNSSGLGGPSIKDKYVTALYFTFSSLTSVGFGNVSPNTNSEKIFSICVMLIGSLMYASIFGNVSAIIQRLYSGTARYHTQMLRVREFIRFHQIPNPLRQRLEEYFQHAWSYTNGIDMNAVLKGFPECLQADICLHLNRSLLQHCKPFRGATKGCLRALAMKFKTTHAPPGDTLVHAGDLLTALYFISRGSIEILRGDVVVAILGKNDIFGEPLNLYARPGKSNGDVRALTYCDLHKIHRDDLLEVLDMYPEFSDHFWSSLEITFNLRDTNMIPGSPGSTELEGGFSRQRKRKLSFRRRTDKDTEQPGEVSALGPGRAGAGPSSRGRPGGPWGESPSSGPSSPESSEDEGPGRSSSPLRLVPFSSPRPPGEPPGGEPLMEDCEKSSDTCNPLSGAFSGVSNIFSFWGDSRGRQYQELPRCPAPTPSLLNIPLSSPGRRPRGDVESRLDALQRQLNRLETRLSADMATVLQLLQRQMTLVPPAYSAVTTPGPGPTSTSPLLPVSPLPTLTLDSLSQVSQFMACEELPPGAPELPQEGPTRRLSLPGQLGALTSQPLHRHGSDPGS", "assay": "primary screen, population patch clamp on CHO cells stably expressing hERG", "units": {"hERG current change (%, negative = inhibition) at 10uM": "%"}, "values": [
      {"smiles": "CC(C)(C)C1=C[C@@H](CO)C[C@@H](CO)C1", "hERG current change (%, negative = inhibition) at 10uM": 1.79},
      {"smiles": "O=C(c1cc(=O)[nH]c2ccccc12)N1CCN(c2cccc(C(F)(F)F)c2)CC1", "hERG current change (%, negative = inhibition) at 10uM": -27.1},
      {"smiles": "CCOc1ccc(C(=O)n2cc(C(=O)OC)c3ccccc32)cc1", "hERG current change (%, negative = inhibition) at 10uM": 8.21},
      {"smiles": "COc1ccc(Nc2nc(-c3cccc(OC)c3O)nc3ccccc23)cc1", "hERG current change (%, negative = inhibition) at 10uM": 23.6},
      {"smiles": "CC(=O)/C(C#N)=C1\\NC(=O)C(Cc2cc(Cl)ccc2Cl)S1", "note": "(stereo not drawn)", "hERG current change (%, negative = inhibition) at 10uM": 3.25},
      {"smiles": "CC1CCCN(c2ccc(C(=O)NCc3ccc4c(c3)OCO4)cc2[N+](=O)[O-])C1", "note": "(stereo not drawn)", "hERG current change (%, negative = inhibition) at 10uM": 1.28},
      {"smiles": "CN(C)c1ccc(/C=N/NC(=O)CN2CCN(c3ccc(F)cc3)CC2)cc1", "hERG current change (%, negative = inhibition) at 10uM": 1.78},
      {"smiles": "Cc1cccc(/C=N/n2c(-c3ccco3)n[nH]c2=S)c1", "hERG current change (%, negative = inhibition) at 10uM": -17.8},
      {"smiles": "COc1ccc(-n2nc(C(=O)NCC(=O)NCCCN3CCCCCC3)c3ccccc3c2=O)cc1Cl", "hERG current change (%, negative = inhibition) at 10uM": -56},
      {"smiles": "CC1=CN2C(=N)/C(=C/c3cn(CCCOc4ccccc4C)c4ccccc34)C(=O)N=C2S1", "hERG current change (%, negative = inhibition) at 10uM": 13.8},
      {"smiles": "CC(=O)Nc1ccc(OC(=O)Oc2ccc(NC(C)=O)cc2)cc1", "hERG current change (%, negative = inhibition) at 10uM": 0.315},
      {"smiles": "Cc1ccc(CNC(=O)CCc2nnc(Cc3ccc(-c4ccccc4)cc3)o2)o1", "hERG current change (%, negative = inhibition) at 10uM": 8.89},
      {"smiles": "O=c1[nH]cnc2c1nc(NCc1ccccc1)n2C1O[C@@H](CO)[C@H](O)[C@@H]1O", "note": "(stereo partly drawn)", "hERG current change (%, negative = inhibition) at 10uM": 3.99},
      {"smiles": "Cc1cc(C)c2c(n1)nn1c(NCCN3CCOCC3)cc(C)nc21", "hERG current change (%, negative = inhibition) at 10uM": -0.656},
      {"smiles": "Nc1ccc(C(=O)Nc2ccc3nc(-c4cccnc4)[nH]c3c2)cc1", "hERG current change (%, negative = inhibition) at 10uM": 4.27},
      {"smiles": "COc1ccc(C(=O)N2CCCC(C(=O)N3CCN(c4ccccc4)CC3)C2)cc1", "note": "(stereo not drawn)", "hERG current change (%, negative = inhibition) at 10uM": -9.18},
      {"smiles": "[O-][n+]1c2cc(C(F)(F)F)ccc2c2n1CCN=C2c1ccc(Cl)cc1", "hERG current change (%, negative = inhibition) at 10uM": -55.6},
      {"smiles": "O=C(NCCc1ccc(Cl)cc1)C1CCCO1", "note": "(stereo not drawn)", "hERG current change (%, negative = inhibition) at 10uM": 12.8},
      {"smiles": "C1=Nc2c(NCc3ccccc3)ncnc2Oc2ccccc21", "hERG current change (%, negative = inhibition) at 10uM": -5.01},
      {"smiles": "COc1ccccc1NS(=O)(=O)c1ccc(C)c(NC(=O)C2CCCO2)c1", "note": "(stereo not drawn)", "hERG current change (%, negative = inhibition) at 10uM": 4.4},
      {"smiles": "O=C(O)c1ccccc1SC1CC(=O)N(c2ccc3c(c2)OCO3)C1=O", "note": "(stereo not drawn)", "hERG current change (%, negative = inhibition) at 10uM": 7.42},
      {"smiles": "CCOc1cccc(C(=O)Nc2cnn(Cc3ccccc3)c2)c1", "hERG current change (%, negative = inhibition) at 10uM": 9.05},
      {"smiles": "O=[N+]([O-])c1ccc2c(c1)C(N1CCOCC1)/C(=C/C1(O)CCCCC1)O2", "note": "(stereo not drawn)", "hERG current change (%, negative = inhibition) at 10uM": 0.294},
      {"smiles": "CC(C)(C)c1nc(-c2ccccc2)nc2c1OCCC2", "hERG current change (%, negative = inhibition) at 10uM": 9.73},
      {"smiles": "NC(=O)N1CCCC1C(=O)Nc1ccc(Cl)c(Cl)c1", "note": "(stereo not drawn)", "hERG current change (%, negative = inhibition) at 10uM": 3.86},
      {"smiles": "O=C(c1cccnc1)N1CCN(S(=O)(=O)c2cccc(Cl)c2)CC1", "hERG current change (%, negative = inhibition) at 10uM": 2.83},
      {"smiles": "O=c1c2cnn(-c3ccccc3Cl)c2ncn1Cc1cccnc1", "hERG current change (%, negative = inhibition) at 10uM": 15.5},
      {"smiles": "Cc1cc(/C=C(\\C#N)c2nnc(N3CCOCC3)n2-c2ccccc2)c(C)n1-c1ccccc1", "hERG current change (%, negative = inhibition) at 10uM": -36.7},
      {"smiles": "COCCNC(=O)CSc1nc2cc(OC)c(OC)cc2c(=O)n1CCc1ccc(S(N)(=O)=O)cc1", "hERG current change (%, negative = inhibition) at 10uM": 13.2},
      {"smiles": "Cl.O=C(NCc1ccncc1)c1cccc(Cn2cc(Br)cn2)c1", "hERG current change (%, negative = inhibition) at 10uM": -20.1},
      {"smiles": "CCn1cc(C(=O)O)c(=O)c2cc(Br)ccc21", "hERG current change (%, negative = inhibition) at 10uM": -46.7},
      {"smiles": "CC(C)NC(=O)CSc1nnc(C2CC2)n1-c1ccccc1", "hERG current change (%, negative = inhibition) at 10uM": 9.62},
      {"smiles": "O=c1c([N+](=O)[O-])c(N2CCOCC2)c2ccccc2n1Cc1ccccc1", "hERG current change (%, negative = inhibition) at 10uM": 1},
      {"smiles": "CN(C)CCCNC(=O)c1ccc(=O)[nH]n1", "hERG current change (%, negative = inhibition) at 10uM": 8.18},
      {"smiles": "O=C(NCc1ccc(F)cc1)c1cnc2n(c1=O)CCS2", "hERG current change (%, negative = inhibition) at 10uM": -6.18},
      {"smiles": "Cc1cc(C)c2nc(SCC(=O)N3CC(=O)Nc4ccccc43)c(C#N)cc2c1", "hERG current change (%, negative = inhibition) at 10uM": 18.5},
      {"smiles": "COc1ccc(CCNC(=O)CSc2cccc3cccnc23)cc1OC", "hERG current change (%, negative = inhibition) at 10uM": -5.27},
      {"smiles": "CN(C)CCn1c(=N)n(CC(O)c2ccc(Cl)c(Cl)c2)c2ccccc21.Cl", "note": "(stereo not drawn)", "hERG current change (%, negative = inhibition) at 10uM": -66.1},
      {"smiles": "CC(=O)Oc1ccc2nc(-c3ccco3)oc(=O)c2c1", "hERG current change (%, negative = inhibition) at 10uM": -1.95},
      {"smiles": "CC(C)(C)NC(=O)NC(=O)CSc1ccc(S(=O)(=O)N2CCCCC2)cn1", "hERG current change (%, negative = inhibition) at 10uM": -13.5},
      {"smiles": "C=CCNc1oc(/C=C/c2ccccc2)nc1C#N", "hERG current change (%, negative = inhibition) at 10uM": -28},
      {"smiles": "COc1cccc(CN(C(=O)c2cc3ccccc3oc2=O)C2CCS(=O)(=O)C2)c1", "note": "(stereo not drawn)", "hERG current change (%, negative = inhibition) at 10uM": 18},
      {"smiles": "Cc1cc(NC(=O)CCC(=O)N(Cc2ccco2)C2(C(=O)NC3CCCC3)CCCCC2C)no1", "note": "(stereo not drawn)", "hERG current change (%, negative = inhibition) at 10uM": -7.43},
      {"smiles": "O=C1c2cccc3cccc(c23)C(=O)N1CCN1CCN(C(=S)Nc2ccc(Cl)cc2)CC1", "hERG current change (%, negative = inhibition) at 10uM": 16.4},
      {"smiles": "Cc1cc(NS(=O)(=O)c2ccc(NC(=O)CSc3nnc(-c4ccco4)n3C)cc2)nc(C)n1", "hERG current change (%, negative = inhibition) at 10uM": 5.75},
      {"smiles": "C/C(CC(=O)NCc1ccco1)=N\\NC(=O)c1ccc(Cl)cc1Cl", "hERG current change (%, negative = inhibition) at 10uM": 8.44},
      {"smiles": "N#C/C(=C1/CCCCCN1)c1nc2ccccc2[nH]1", "hERG current change (%, negative = inhibition) at 10uM": 3.51},
      {"smiles": "O=C(O)Cn1c(=O)c2c3c(sc2n(Cc2ccccc2)c1=O)CCCC3", "hERG current change (%, negative = inhibition) at 10uM": 16.6},
      {"smiles": "CC(C)CSC1=NSC2=NC(=O)/C(=C\\c3coc4ccccc4c3=O)C(=N)N12", "hERG current change (%, negative = inhibition) at 10uM": 16.7},
      {"smiles": "CCOc1ccc(N2CC(=O)N(c3ccc(OCC)cc3)CC2=O)cc1", "hERG current change (%, negative = inhibition) at 10uM": -20.1},
      {"smiles": "Nc1nc(-c2cccnc2)nn1S(=O)(=O)c1ccccc1", "hERG current change (%, negative = inhibition) at 10uM": 1.61},
      {"smiles": "Cc1ccc2nc(/C(C#N)=C\\c3ccc(Oc4ccc([N+](=O)[O-])cn4)cc3)[nH]c2c1", "hERG current change (%, negative = inhibition) at 10uM": 1.61},
      {"smiles": "COc1cc2c(=O)c(-c3ccc(O)cc3)coc2cc1OC1OC(CO)C(O)C(O)C1O", "note": "(stereo not drawn)", "hERG current change (%, negative = inhibition) at 10uM": 20.3},
      {"smiles": "Cc1ccc2c(c1)C(c1ccccc1)N(C(=O)c1ccc(Br)o1)CC(=O)N2", "note": "(stereo not drawn)", "hERG current change (%, negative = inhibition) at 10uM": -56.9}
    ]}
  ]
}
